From the supplement of paper PMC4604168 (melanoma cell lines)
The list shows a part of the results. Most values come without repeats; read them as rough.
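Further: cells treated in 1,536-well plates, then fixed and DAPI-stained, with nuclei counted from automated high-throughput microscope images.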

These compounds were tested on A101D (assay: cell count relative to DMSO control; melanoma cells; higher = more viable cells). Conditions: library dose: standard library concentration; 72 h.
In the case of NC(=O)c1ccc(N(C(N)=O)c2c(F)cccc2F)nc1-c1ccc(F)cc1F + O=C(O)c1ccc(-c2c[nH]c3ncc(-c4ccccc4)cc23)cc1C1CCCC1 [GSK650394] (first compound 2 µM, partner dose 0.8 µM), the cell count is reported as 92.1%. Compound CCCCCCCCc1ccc(CCC(N)(CO)CO)cc1 [fingolimod] + COCC[n+]1c2c(n(Cc3cnccn3)c1C)C(=O)c1ccccc1C2=O [YM155] (first compound 10 µM, partner dose 0.002 µM) has a cell count of 3.41%. NC(=O)c1ccc(N(C(N)=O)c2c(F)cccc2F)nc1-c1ccc(F)cc1F + CC(=O)c1c(C)c2cnc(Nc3ccc(N4CCNCC4)cn3)nc2n(C2CCCC2)c1=O [palbociclib] (first compound 2 µM, partner dose 0.2 µM) gave a cell count of 75.7%. Work on CCCCCCCCc1ccc(CCC(N)(CO)CO)cc1 [fingolimod] + Nc1nc(F)nc2c1ncn2[C@@H]1O[C@H](CO)[C@@H](O)[C@@H]1O [fludarabine] (first compound 10 µM, partner dose 1 µM) yielded a cell count of 5.11%. In the case of NC(=O)c1ccc(N(C(N)=O)c2c(F)cccc2F)nc1-c1ccc(F)cc1F + CCCS(=O)(=O)Nc1ccc(F)c(C(=O)c2c[nH]c3ncc(Cl)cc23)c1F [PLX4720] (first compound 2 µM, partner dose 0.4 µM), the cell count is reported as 79.4%.

The compounds below were run on A2058 in the same assay as above. Conditions: library dose: standard library concentration; 72 h.
In the case of Cc1ccc(NC(=O)c2cccc(N(C)C)c2)cc1NC(=O)c1ccc(O)cc1 + Cn1cncc1[C@@](N)(c1ccc(Cl)cc1)c1ccc2c(c1)c(-c1cccc(Cl)c1)cc(=O)n2C [tipifarnib] (first compound 10 µM, partner dose 0.05 µM), the cell count is reported as 92.4%. Compound NC(=O)c1ccc(N(C(N)=O)c2c(F)cccc2F)nc1-c1ccc(F)cc1F + COCC[n+]1c2c(n(Cc3cnccn3)c1C)C(=O)c1ccccc1C2=O [YM155] (first compound 2 µM, partner dose 0.002 µM) has a cell count of 22.6%. Compound CCCCCCCCc1ccc(CCC(N)(CO)CO)cc1 [fingolimod] + CNC(=O)c1cc(Oc2ccc(NC(=O)Nc3ccc(Cl)c(C(F)(F)F)c3)cc2)ccn1 [sorafenib] (first compound 10 µM, partner dose 2 µM) has a cell count of 5.14%. Work on CC(C)(C)c1cnc(CSc2cnc(NC(=O)C3CCNCC3)s2)o1 + OCCn1cc(-c2cnc3nnn(Cc4ccc5ncccc5c4)c3n2)cn1 [PF04217903] (first compound 0.05 µM, partner dose 5 µM) yielded a cell count of 79%. In the case of NC(=O)c1ccc(N(C(N)=O)c2c(F)cccc2F)nc1-c1ccc(F)cc1F + NC1(c2ccc(-c3nc4ccn5c(=O)[nH]nc5c4cc3-c3ccccc3)cc2)CCC1 [MK2206] (first compound 2 µM, partner dose 2 µM), the cell count is reported as 76%. In the case of CCCCCCCCc1ccc(CCC(N)(CO)CO)cc1 [fingolimod] + COc1ccc(COc2ccc(Cc3cnc(N)nc3N)cc2OC)cc1 [GW2580] (first compound 10 µM, partner dose 5 µM), the cell count is reported as 7.91%. Compound NC(=O)c1ccc(N(C(N)=O)c2c(F)cccc2F)nc1-c1ccc(F)cc1F + Clc1ccc(Nc2nnc(Cc3ccncc3)c3ccccc23)cc1 [vatalanib] (first compound 2 µM, partner dose 10 µM) has a cell count of 84.4%. NC(=O)c1ccc(N(C(N)=O)c2c(F)cccc2F)nc1-c1ccc(F)cc1F + CN1CCN(c2ccc3nc(-c4c(N)c5c(F)cccc5[nH]c4=O)[nH]c3c2)CC1 [Dovitinib] (first compound 2 µM, partner dose 0.5 µM) was tested, and the cell count was 30.7%. With NC(=O)c1ccc(N(C(N)=O)c2c(F)cccc2F)nc1-c1ccc(F)cc1F + O=C(O)[C@@H]1[O][Sb](=[O])([O][Sb]2(=[O])[O][C@H]([C@H](O)CO)[C@H](O)[C@H](C(=O)O)[O]2)[O][C@H]([C@H](O)CO)[C@@H]1O [stibogluconate] (first compound 2 µM, partner dose 10 µM) the cell count was 99.3%. CC(C)(C)c1cnc(CSc2cnc(NC(=O)C3CCNCC3)s2)o1 + O=S(=O)(c1ccccc1)N(CC(F)(F)F)c1ccc(C(O)(C(F)(F)F)C(F)(F)F)cc1 [T0901317] (first compound 0.05 µM, partner dose 7 µM) gave a cell count of 85.7%.
